Laboratory results published in article PMC7819943, “Rice protein-binding microarrays: a tool to detect cis-acting elements near promoter regions in rice”.
The list shows a part of the results.

Each sequence was assayed against T1, OsWOX13 (Oryza sativa, UniProt Q5QMM3 1-267) (assay: protein-binding microarray (RPBM); PBS, 2% BSA, 51.3 ng/ul salmon testes DNA, 50 uM zinc acetate, 200 nM TF, 25 C, 1 h; high values mean tight binding). Conditions: protein: recombinant; tags: N-terminal polyhistidine and DsRed monomer fusion (pET32a); label: CyDye5-dUTP incorporated in the synthesized complementary strand; 3' TTTTT single-stranded linker to array surface; dsDNA, one strand shown.
T1 sequence: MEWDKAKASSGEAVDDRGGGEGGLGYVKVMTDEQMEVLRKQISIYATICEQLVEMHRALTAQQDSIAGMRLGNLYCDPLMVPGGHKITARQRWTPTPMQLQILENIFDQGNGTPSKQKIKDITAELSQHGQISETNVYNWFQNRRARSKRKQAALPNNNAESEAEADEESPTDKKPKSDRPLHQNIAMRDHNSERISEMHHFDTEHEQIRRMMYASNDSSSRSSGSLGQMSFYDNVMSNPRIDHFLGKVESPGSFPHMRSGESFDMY
Summary of the method: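 Using Ni–NTA, transcription factors fused N-terminally to polyhistidine and DsRed were purified after expression in E. coli BL21-CodonPlus. These were incubated at 200 nM with a blocked, double-stranded custom Agilent array for 1 h at 25 °C in a buffer containing 50 µM zinc acetate, and the array was washed. The binding signal is per-feature fluorescence intensity (arbitrary units) on an Axon 4000B scanner.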

Sequence	binding signal
ACACTAATTAGGGAGATAATCTCTCTTGTGGTGTTTGTGTCGGAGTCACCTAGTGCAG	52300 fluorescence intensity (a.u.)
TCAATCCAGCACAGTAATTACCAAATCACTCTAGTTAGAACGGAGTCACCTAGTGCAG	4610 fluorescence intensity (a.u.)
TTAAATTTAATCTTTAAGAATTATATTGCACATACAATTTCGGAGTCACCTAGTGCAG	14600 fluorescence intensity (a.u.)
GAGTTTAAATAGATTTTGATATGATCATGAGACTTGACAACGGAGTCACCTAGTGCAG	12900 fluorescence intensity (a.u.)
GTTGCAATTAGTTACTATTAGCACATGGAGTCTGTACTATCGGAGTCACCTAGTGCAG	6000 fluorescence intensity (a.u.)
ATTTCTAATTGGTGTTTTGAATATTTGCTCTAGACTTTTGCGGAGTCACCTAGTGCAG	33100 fluorescence intensity (a.u.)
GGATTGACAGACACCAAGGAACACATGTAGTAGTAAATGACGGAGTCACCTAGTGCAG	18300 fluorescence intensity (a.u.)
CAAAATTTGATAAATTTTGATTAATTTCGGTTGAATTTTACGGAGTCACCTAGTGCAG	12900 fluorescence intensity (a.u.)
AAGTAATTATTAATTCTTTTCCTATCATTTGTTTCATTATCGGAGTCACCTAGTGCAG	16700 fluorescence intensity (a.u.)
CGAAATTAAGTTTGGAGATTTTCAGGCACCTTCTTTTCACCGGAGTCACCTAGTGCAG	7840 fluorescence intensity (a.u.)
CACTTTAATTCAAAATTTAATCCACTCTTTTAAGTGGATTCGGAGTCACCTAGTGCAG	3360 fluorescence intensity (a.u.)
AGATGTTTGAATAATTGATACAATATCAGGAGCGAATATGCGGAGTCACCTAGTGCAG	4430 fluorescence intensity (a.u.)
TATAACTATTTAAATGACATGTAGTAAACGATAAGGCTTACGGAGTCACCTAGTGCAG	6800 fluorescence intensity (a.u.)
CATCTATTTTGGAATTGATGGAGTAAGGCCGTGTTTAGATCGGAGTCACCTAGTGCAG	3700 fluorescence intensity (a.u.)
CCTTTCTCCTTCAATCATCATCACACACCCCATCCTCTAACGGAGTCACCTAGTGCAG	12600 fluorescence intensity (a.u.)
GCGCTTAATCTGTTAGTTACATTATAACTATTCGTATTCGCGGAGTCACCTAGTGCAG	3650 fluorescence intensity (a.u.)
TTAAAATTATGTTTGAAAATTTAAATTTTAGACGCGGCTTCGGAGTCACCTAGTGCAG	14900 fluorescence intensity (a.u.)
GAATAATTATCAAAGCAAAATGCCAATGAACAGCGGAGGCCGGAGTCACCTAGTGCAG	15200 fluorescence intensity (a.u.)
CATACCCCTTGGAATTGATCAAGACCCGATTGACTATTGACGGAGTCACCTAGTGCAG	3940 fluorescence intensity (a.u.)
CTAACAATGTCTTTCGTGATTAGTTTCACACTTCTCACCACGGAGTCACCTAGTGCAG	5130 fluorescence intensity (a.u.)
CTTAATATTTTACTCATTGATTAGCTGAAATATTTGACTACGGAGTCACCTAGTGCAG	15900 fluorescence intensity (a.u.)
CTTGTATGTTTGTGGATTGATATATTATATATTGATATATCGGAGTCACCTAGTGCAG	6720 fluorescence intensity (a.u.)
GCAAAATTTGATAATAACAAGCAGCCTTGCAAACTGCCATCGGAGTCACCTAGTGCAG	8340 fluorescence intensity (a.u.)
CTTAACTTTTATAATATACCATCATCGTACAGTAGACTCTCGGAGTCACCTAGTGCAG	4450 fluorescence intensity (a.u.)
TTGATGGATTCACCGGATTGTGCATATTTGCATCGTGGGACGGAGTCACCTAGTGCAG	5930 fluorescence intensity (a.u.)
AATATCTCTTGGATTGATTATCTTGAGTAAACACTGGTTTCGGAGTCACCTAGTGCAG	5420 fluorescence intensity (a.u.)
TTACTTGAATTAATTTAGTTCTGGGAGCCATGAGAAATGTCGGAGTCACCTAGTGCAG	3640 fluorescence intensity (a.u.)

Sequence	binding signal
TACTAATTTTATTGTTCATTTGGCATGAATTACAAGATGCCGGAGTCACCTAGTGCAG	22300 fluorescence intensity (a.u.)
AGCTAATCTAATAGCTAATTGATATAATAGTTGTTTACTACGGAGTCACCTAGTGCAG	34000 fluorescence intensity (a.u.)
CTAATTGAAATCACAAATGCTGAGTTGCTGACATGCACCACGGAGTCACCTAGTGCAG	27000 fluorescence intensity (a.u.)
TTCTTTAATTAAATTTAAAACAATTTGAGTTTGATCAAAGCGGAGTCACCTAGTGCAG	33500 fluorescence intensity (a.u.)
CGTGAAATTTTCGCAAATTTTGTCATTACGAAGACAACATCGGAGTCACCTAGTGCAG	7120 fluorescence intensity (a.u.)
CCTGTTAAATTGATCTGCCCTGATTAATTGACCCACCGACCGGAGTCACCTAGTGCAG	38100 fluorescence intensity (a.u.)
TGATTTGCATTAATTTGTAGCCACATTTTCTGTTCCTTTGCGGAGTCACCTAGTGCAG	15800 fluorescence intensity (a.u.)
AACCAACAAATTTGTAATGGCATGGATCCAATTAACCCTCCGGAGTCACCTAGTGCAG	7500 fluorescence intensity (a.u.)
TAATTATTGAACACACTAATTAAGTATTACGATGCACCTCCGGAGTCACCTAGTGCAG	6340 fluorescence intensity (a.u.)
AAATAGAATTATCTCTATCAACATGATCAAATGAGAGGGACGGAGTCACCTAGTGCAG	4680 fluorescence intensity (a.u.)
GTTAATTTCGTTTCGCTAGTAGATAGCGTGACAGTGTGAGCGGAGTCACCTAGTGCAG	10300 fluorescence intensity (a.u.)
GTGGAGGTGATGTGATGTGATTAGTTGACGAGACGGGGAGCGGAGTCACCTAGTGCAG	15600 fluorescence intensity (a.u.)
TACTTAAATTAACATGAAACGGCAATGGGGAAATTTTGTGCGGAGTCACCTAGTGCAG	22400 fluorescence intensity (a.u.)
AATCAATTTTATTTTCTCACTAGATTACTTTTATCCTCAACGGAGTCACCTAGTGCAG	3690 fluorescence intensity (a.u.)
AGTGCGTTGGTGATTTGCCAGTAAACAAAACAACACCCGTCGGAGTCACCTAGTGCAG	5380 fluorescence intensity (a.u.)
TGTTGATAAACATGTTATAAATGCATGCGCTCTCAAGGCGCGGAGTCACCTAGTGCAG	3200 fluorescence intensity (a.u.)
AAAATAACTTAGTAATGTTAATTTTACAAAGCTGATGTTGCGGAGTCACCTAGTGCAG	7280 fluorescence intensity (a.u.)
ATTAATTGATTGGATTGGTTGTGTGCATTATTTCATCTAACGGAGTCACCTAGTGCAG	65200 fluorescence intensity (a.u.)
GATAATTTGTAATTCTGTTAAAATGCATGAAGAATAAAGACGGAGTCACCTAGTGCAG	16300 fluorescence intensity (a.u.)
TTTCAATTAGGTGGGCGAGAGTGGGGTTTAACCAATAGAGCGGAGTCACCTAGTGCAG	7290 fluorescence intensity (a.u.)
TATAGATTAGAACGCACCTTTCACGCGAGTATTTGCCTTTCGGAGTCACCTAGTGCAG	6830 fluorescence intensity (a.u.)
TTTAGATAGATATATATATTTAGATTCATTAACATCAATACGGAGTCACCTAGTGCAG	4410 fluorescence intensity (a.u.)
AATCACTTTGCTAATTGCTTTATTAATCAAGCAGGGTACGCGGAGTCACCTAGTGCAG	16000 fluorescence intensity (a.u.)
ACCGTAACTGTAGTCATTGCATCCAATCTGGCAACGATAGCGGAGTCACCTAGTGCAG	4870 fluorescence intensity (a.u.)
TACTTAATTTCGTTGTAAAGATGGATGAGGGTTAGAGCTACGGAGTCACCTAGTGCAG	5560 fluorescence intensity (a.u.)
GCGTTGATTTTAAATTCGAATTTGATTTTAATTCTAGGGGCGGAGTCACCTAGTGCAG	40600 fluorescence intensity (a.u.)
AATTAGATTGCTTTATTTTGAGACATGGTAGTATAATGTTCGGAGTCACCTAGTGCAG	27400 fluorescence intensity (a.u.)
